According to PubChem BioAssay AID463173 (ICCB-Longwood Screening Facility, Harvard Medical School, 2010):
Among all 52,000 compounds or so, about 1,700 (3.3%) were called active. No stated cut-off is given here; in the data, active means survival mostly below about 52% (no sharp cut-off); inactive means mostly above about 56%. Some of the results follow.

Tested on: Wild type
Assay: growth inhibition of S. aureus wild type versus tarO mutant, primary screen, teichoic acid synthesis inhibitors, RN4220, OD600 (AID 463173)
Settings: S. aureus RN4220 wild type/DeltatarO growth, OD600, 18 h, stronger effect = lower value, screened at 18.75 µg/mL (by protocol)

Structure (SMILES) | survival
CCCOc1ccc(C(=O)Nc2cc3nn(-c4ccc(CC)cc4)nc3cc2C)cc1 | inactive: 59%
CCC(C)Cn1c(COc2ccc(OC)cc2)nc2ccccc21 (stereo not given) | active: -1%
CCC(O)(CCN1CCCCC1)c1ccccc1 (stereo not given) | inactive: 113%
CCOC(=O)Cc1c(C)nc2c(-c3ccc(OC)c(OC)c3)c(C)nn2c1C | inactive: 61%
CCN1C(=O)/C(=c2/s/c(=C3\SC(C)=C(C)N3CC)c(=O)n2CC)N(C)C1=S | inactive: 104%
CC1Cc2ccccc2N1C(=O)CSc1nc(N)cc(N)n1 (stereo not given) | inactive: 99%
O=C(CCC(=O)N1CC2CCCN2c2ccccc21)NCc1ccccc1F (stereo not given) | inactive: 129%
CCOC(=O)CC(NC(=O)c1cc2cc(OC)ccc2oc1=O)c1ccc(OC)cc1 (stereo not given) | inactive: 93%
Cc1cccc(C(=O)Nc2nnc(S(=O)(=O)N3CCC(C)CC3)s2)c1 | inactive: 34%
COc1ccc(-c2cc(C(=O)Nc3ccc(C#N)cc3)no2)cc1 | inactive: 86%
Cc1cccc(OCC(=O)OCc2cc(=O)n3nc(C4CC4)sc3n2)c1 | inactive: 112%
O=C(NCc1ccccc1)c1cccc(Nc2nc3ccccc3n3nnnc23)c1 | inactive: 83%
CCOc1ccc(CNC(=O)CCS(=O)(=O)c2cc3c4c(c2)CCN4C(=O)CC3)cc1 | inactive: 71%
O=C(C1CCN(S(=O)(=O)c2cccc3nonc23)CC1)N1CCN(c2ccc(F)cc2)CC1 | inactive: 95%
O=C(c1ccccc1)c1ccc(C(=O)O)c(C(=O)O)c1 | inactive: 106%
CC1CCN(C(=O)CN2CCSc3ccc(S(=O)(=O)N(C)C)cc32)CC1 | inactive: 72%
CCOC(=O)c1c(C)oc2ncnc(Nc3ccc(CC)cc3)c12 | inactive: 86%
CCC(=O)N1CCc2cc(S(=O)(=O)NCCC(=O)NC(C)c3ccccc3)ccc21 (stereo not given) | inactive: 72%
Cc1cc(C)cc(OC(=O)c2cc(-c3ccc4c(c3)OCCO4)on2)c1 | active: -7%
COc1ccc(/C=C/c2nc(-c3ccccc3O)n(-c3ccccc3)n2)cc1OC | active: 8%
CC(=O)c1ccc(NC(=O)C(Cc2ccccc2)NS(=O)(=O)c2ccc3c(c2)CCC(=O)N3)cc1 (stereo not given) | inactive: 78%
CCOC(=O)c1ccc(N2C(=O)c3n[nH]c(C)c3C2c2cccc(Br)c2)cc1 (stereo not given) | active: 3%
O=c1cc(-c2ccccc2)n2c(SCc3ccc(Cl)cc3)nnc2[nH]1 | inactive: 85%

Structure (SMILES) | survival
COc1ccc(C(=O)c2cn(Cc3ccccc3F)c3cc4c(cc3c2=O)OCO4)cc1 | inactive: 89%
COc1ccccc1C(=O)Nc1ccc2oc(-c3cccc(Cl)c3Cl)nc2c1 | inactive: 100%
COc1ccc(-n2c3c(cc(-c4nc(-c5ccc(C)cc5)cs4)c2=O)C(=O)CC(C)(C)C3)cc1 | inactive: 78%
CC(C)C(=O)NCC(c1ccc2c(c1)OCO2)N1CCN(c2ccccc2F)CC1 (stereo not given) | inactive: 91%
O=C(NCc1ccccc1)c1ccco1 | inactive: 111%
CC1CCCN(C(=O)c2cc3c(=O)n(C)c4ccccc4c3s2)C1 (stereo not given) | inactive: 134%
Cc1sc2c(c1C)c(=O)n(-c1ccc(Cl)cc1)c(=O)n2Cc1cc(=O)n2ccccc2n1 | inactive: 78%
Cc1ccc2nc(N3CCC(C(=O)N4CCN(c5cccc(C)c5C)CC4)CC3)[nH]c2c1 | inactive: 76%
CCOc1ccc(C(=O)NCc2nc3cccnc3n2Cc2ccc(F)cc2)cc1OCC | inactive: 53%
COc1ccc(C2C(C(N)=O)=C(C)Nc3nc(SCc4ccccc4Cl)nn32)cc1OC (stereo not given) | inactive: 143%
CCOC(=O)c1ccccc1NC(=O)CSc1nc2ccncc2[nH]1 | inactive: 73%
Cc1ccc(CNC(=O)c2nc(SCc3ccccc3F)ncc2Cl)cc1 | inactive: 90%
O=C(NCc1ccco1)c1ccc(Cn2c(SCc3ccc(F)cc3)nc3cccnc32)cc1 | inactive: 101%
Cc1cccc(-c2nnc(SCc3cc(=O)c4cccc(Cl)c4[nH]3)n2C)c1 | inactive: 72%
COc1cccc2c1ncc1c(-c3ccc(C)cc3)nn(-c3cccc([N+](=O)[O-])c3)c12 | inactive: 79%
Cc1nc2cc(C(=O)O)ccc2n1C | inactive: 101%
CCOc1ccc(-n2c(SCC(=O)N3CCc4ccccc43)nc3c([nH]c4ccccc43)c2=O)cc1 | inactive: 73%
CC(=O)Nc1cc(C(C)C)c(O)c(C(C)C)c1 | inactive: 104%
CCOC(=O)CNc1nc(Oc2ccc(=O)n(C)n2)nc(N(CC)CC)n1 | inactive: 71%
CCC(=O)Nc1cc(-c2cccc(C)c2)nn1-c1ccccc1 | inactive: 73%
COc1ccc(N2CCN(Cc3nc4c(c(=O)[nH]c(=O)n4C)n3Cc3ccc(Cl)cc3)CC2)cc1 | inactive: 118%
Cc1cccc(-c2nc(SCC(=O)N3CCc4ccccc43)c3c(=O)n(C)c(=O)n(C)c3n2)c1 | inactive: 78%
Cn1c(SCc2ccccc2)nnc1C1CCCN1CC(=O)N1CCN(c2ccc(F)cc2)CC1 (stereo not given) | inactive: 113%

Structure (SMILES) | survival
COc1ccc(NC(=O)Cn2c(=O)c(-c3cc(C)ccc3NC(C)=O)nc3ccccc32)c(OC)c1 | inactive: 86%
Cc1cc(C)cc(NC(=O)C(=O)NCC(c2ccc3c(c2)OCO3)N2CCN(C)CC2)c1 (stereo not given) | inactive: 88%
CCCN(Cc1cccs1)C(=O)Nc1ccc(OCC)cc1 | inactive: 82%
Cc1cc(=O)[nH]c2nnc(SCC(=O)Nc3ccc(OC(F)(F)F)cc3)n12 | inactive: 83%
O=C(COc1ccccc1)NCc1ccc2c(c1)CCN2C(=O)c1ccc(Cl)cc1 | inactive: 82%
COc1ccc(NC(=O)N(CCC(C)C)C(C)c2cccs2)c(OC)c1 (stereo not given) | inactive: 97%
Cc1ccc(C2CCN(C(=O)c3cnn(-c4cccc(Cl)c4)c3C3CCN(C(=O)OC(C)(C)C)CC3)C2)cc1 (stereo not given) | inactive: 77%
COc1ccc(OC)c(NC(=O)c2cc(-c3ccc(Cl)s3)nc3ccccc23)c1 | inactive: 102%
COc1ccccc1CNC(=O)CCc1c(C)nn(-c2ccc(N3CCOCC3)nn2)c1C | inactive: 74%
NCc1nc2cccnc2n1Cc1ccccc1Cl | inactive: 71%
O=C(NCc1ccco1)c1ccc2c(c1)N(Cc1ccccc1)C(=O)c1ccccc1S2(=O)=O | inactive: 86%
O=C(CSc1nc(O)cc(=O)[nH]1)c1ccc(O)cc1O | inactive: 108%
COCCNc1ncnc2c1c(-c1ccccc1)cn2-c1ccc(C)c(Cl)c1 | inactive: 71%
COc1ccc(NC(=O)CSc2nc3c([nH]c4ccccc43)c(=O)n2-c2ccccc2)c(OC)c1 | inactive: 73%
CCOc1ccc(NC(=O)Cn2c3ncccc3c(=O)n2-c2ccc(CC)cc2)cc1 | inactive: 80%
Cc1ccc(CSc2nnc(-c3ccncc3)n2CC2CCCO2)cc1 (stereo not given) | inactive: 97%
COc1ccc(-n2ncc3c(NC(C)(C)CO)ncnc32)cc1 | inactive: 59%
CC1(C)Cc2ccccc2-c2nc3n(c(=O)c21)CCCS3 | inactive: 112%
Cc1cc(S(=O)(=O)C(CNC(=O)c2ccc(OC(C)C)cc2)c2cccs2)ccc1F (stereo not given) | inactive: 74%
Cc1nc2cccnc2n1C1CCN(S(C)(=O)=O)CC1 | inactive: 66%
CCN(CC)S(=O)(=O)c1ccc(NC(=O)NCc2noc3ccc(C)cc23)cc1 | inactive: 105%
Cc1ccc(CNC(=O)c2oc3c(c2C)-c2nn(Cc4ccc(Cl)cc4)cc2CC3)cc1 | inactive: 88%
COc1ccc(C(=O)Nc2ccccc2C(=O)NC(C(=O)O)C(C)C)cc1 (stereo not given) | inactive: 100%

Structure (SMILES) | survival
COc1ccc(CCNC(=O)c2ccc(OC)cc2)cc1 | inactive: 103%
COc1cc2nc(C3CCC3)n(N)c(=O)c2cc1OC | inactive: 114%
Cc1ccccc1S(=O)Cc1ccc(C(=O)N2CCN(c3cccc(C)c3C)CC2)o1 (stereo not given) | inactive: 76%
Cc1ccc(-c2c(CN3CCN(c4cccc(C)c4)C(C)C3)csc2C)cc1 (stereo not given) | inactive: 90%
CC(C)CC(=O)N1c2nc(C(C)C)nn2C2(CCCCC2)[C@@H]2CCCC[C@@H]21 | inactive: 99%
Cc1ccc2onc(CC(=O)N3CCN(c4ccc(F)cc4)CC3)c2c1 | inactive: 78%
COC(=O)c1c(NC(=O)c2cc3ccccc3c(=O)o2)sc2c1CCCC2 | inactive: 80%
Cc1cccc(C)c1OCC(=O)Nc1ncn[nH]1 | inactive: 77%
CCN(CC)CCNC(=O)c1c(C)oc2ncnc(N3CCOCC3)c12 | inactive: 134%
CCOc1ccc(CCNC(=O)c2cnc3sc(N(CC)CC)nn3c2=O)cc1OCC | inactive: 127%
Cc1c(Cl)cccc1NC(=O)CSc1ncc2c(n1)-c1ccccc1N(C)S2(=O)=O | inactive: 81%
CN(CCCNC(=O)c1cc2c(Cl)nc3ccccc3c2s1)Cc1ccccc1 | inactive: 45%
Cc1cc(C)c(NC(=O)Cn2cc(S(=O)(=O)Cc3ccccc3F)c3ccccc32)c(C)c1 | inactive: 78%
COc1ccc(OC)c(CNS(=O)(=O)c2ccc3c(c2)CCCN3C(C)=O)c1 | inactive: 75%
COc1ccccc1NC(=O)N(Cc1nnc2n1CCCCC2)c1ccc(F)cc1 | inactive: 63%
CC(=O)c1cccc(NC(=O)C(C)n2c(=O)cc(C)c3c(C)nn(-c4ccccc4)c32)c1 (stereo not given) | inactive: 85%
COc1ccc(CCNC(=O)c2ccc(Nc3nc4ccccc4n4nnnc34)cc2)cc1OC | inactive: 91%
COc1ccc(NC(=O)Cn2nnc(C(=O)NCCc3ccccc3)c2N)cc1 | inactive: 81%
Cc1cccc(N(CC(O)Cn2c3ccccc3c3ccccc32)S(=O)(=O)c2ccc(F)cc2)c1 (stereo not given) | inactive: 70%
CC(C)c1ccc(NC(=O)c2cc3sc(Cl)cc3n2C)cc1 | inactive: 136%
O=C(CN(C(=O)C1CSC(=O)C1)c1ccccc1F)NC1CCCC1 (stereo not given) | inactive: 91%
